Out of some 150,000 compounds screened, about 540 (0.36%) showed an effect of 50% or more. The list shows a part of the results.

The test system of this test is Plasmodium falciparum. As to the kind of experiment: Primary screen in NF54 nanoGlo assay, in single point, at 2uM, 72h; a lower Z score goes with more inhibition. In kind it is functional, Erythrocyte. To be noted: timepoint 72 hour.
Broadly, the % Inhibition is the relative decrease from the control value, in per cent. Regarding `O=C(c1ccc(F)cc1)N1CCN(S(=O)(=O)c2cccnc2)CC1`, the “% Inhibition” value is -4% and the Z score worked out at 0.49.
With `CCn1cc(CNC(=O)c2cc(COc3ccc4ncccc4c3)on2)cn1`, the “% Inhibition” value is -4% and the Z score stood at 0.5.
On the same counts, the results for `CC(C)[C@]1(C)CC(=O)N(Cc2nccn2Cc2ccccc2)C1=O` are -10% and 0.93.
On the same counts, the results for `CN1CCN(C[C@@H]2CN(C(=O)c3cc(-c4ccccc4)n[nH]3)C[C@@H]2CO)CC1` are 4% and -0.77.
On the same counts, the results for `CO[C@@H](C(=O)NCc1ccon1)c1ccccc1C(F)(F)F` are -5% and 0.61.
As for `O=C(NCCc1ccc2c(c1)OCCO2)c1ccc(Cl)s1`, the “% Inhibition” value is reported as -7% and the Z score is on record as 1.09.
On to `C[C@H](NC(=O)Cn1c(-c2cccs2)cc2cc(Cl)ccc21)C(=O)N1CCCCC1`, for which the “% Inhibition” value is -15% and the Z score is recorded as 1.88.
On the same counts, the results for `C[C@H](NCc1cnn(C)n1)c1cccc(-n2cccn2)c1` are 2% and -0.34.
On the same counts, the results for `COC(=O)C1(NC(=O)CCOc2ccc(C)c(C)c2)CC(CO)C1` (centres undefined) are 6% and -0.87.
On the same counts, the results for `N#CC1(c2nc(-c3cccc(OCc4cccnc4)c3)no2)CCC1` are -9% and 1.26.
As for `COc1cc(-c2cc(C(=O)N[C@H]3CC(=O)N(C)C3)[nH]n2)cc(OC)c1OC`, the “% Inhibition” value came out at 6% and the Z score was -1.2.
On the same counts, the results for `CC(C)(C(=O)O)C(=O)N1CCC[C@H](CNC(=O)Nc2cccc(F)c2)C1` are -12% and 1.93.
On the same counts, the results for `CC[C@H](NC(=O)Nc1cccc(NC(=O)C(C)C)c1)c1nnc2n1CCCCC2` are -1% and 0.07.
Take `Cc1c(NC(=O)c2cscn2)c(=O)n(-c2ccccc2)n1C`: the “% Inhibition” value is -9% and the Z score is 1.18.
As to `COC(=O)[C@@H]1C[C@H](NS(=O)(=O)c2ccc3c(c2)NC(=O)CO3)CN1C`, the “% Inhibition” value is -8% and the Z score is 1.01.
On the same counts, the results for `COc1cccc(CN2CCC[C@@]3(CCN(C(=O)c4cc5ccccc5o4)C3)C2)c1` are 2% and -0.24.
On the same counts, the results for `Cn1c(CCNC(=O)c2ccc(-c3ccc4c(c3)CCO4)cc2)n[nH]c1=O` are -3% and 0.58.
On the same counts, the results for `CCN(C[C@H](C)C#N)C(=O)COC(=O)c1cccc(CC#N)c1` are -9% and 1.19.
As for `Cc1cc(CN2C[C@H](c3ccccc3)C3(CCC3)C2)oc1C(=O)O`, the “% Inhibition” value was found to be 2% and the Z score is on record as -0.29.
On the same counts, the results for `COCCN(CC=C(C)C)CC1CCN(Cc2ccccc2OC)CC1` are -15% and 2.03.
For the compound `O=C([C@H]1CCCN(c2nc3ncccc3n3cccc23)C1)N1CCN(c2cccc(Cl)c2)CC1`, the “% Inhibition” value is -4% and the Z score was 0.71.
Take `COc1ccc(OC)c(CCNC(=O)Cn2ccc3cc(S(=O)(=O)N4CCCC4)ccc32)c1`: the “% Inhibition” value came to 35% and the Z score is given as -1.03.
Take `CCOCCOc1cnn(-c2ccccc2)c(=O)c1Nc1cccc(C(=O)NCc2ccc(F)cc2)c1`: the “% Inhibition” value is -16% and the Z score came out at 1.73.
On the same counts, the results for `O=S(=O)(c1cccnc1)N1CCC[C@@]2(C1)Nc1cccnc1N=C2NCc1ccccc1` are 29% and -3.28.
On the same counts, the results for `COc1cccc(Cn2c(-c3sccc3C)n[nH]c2=O)c1` are -9% and 1.66.
On the same counts, the results for `CC(C)(C)S(=O)(=O)Cc1ccc(N)cc1` are -14% and 2.81.
Turning to `CCOC(=O)CN(C(=O)c1cc(C)n(C)n1)C1CCCCC1`, the “% Inhibition” value turned out to be 6% and the Z score is -0.61.
On the same counts, the results for `CCOc1ccccc1OCC(=O)Nc1ccccc1Oc1ccccc1Cl` are 11% and -1.42.
For the compound `O=C(O)CN(Cc1ncc(C2CC2)o1)c1ccccc1`, the “% Inhibition” value stood at 7% and the Z score is listed as -0.77.
On the same counts, the results for `CCN1CCCC[C@@H]1CNC(=O)NCc1noc(-c2cccc(Br)c2)n1` are -5% and 0.63.
`c1ccc2c(c1)CCN2Cc1csc(-c2ccoc2)n1`: the “% Inhibition” value was -2% and the Z score stood at 0.21.
On the same counts, the results for `COc1ccc(-c2nccnc2OC)c(-n2cccn2)c1` are 3% and -0.43.
`C[C@@H](c1nc2ccccc2n1C(F)F)N1CCN(S(=O)(=O)c2cccnc2)CC1`: the “% Inhibition” value is -9% and the Z score is reported as 0.96.
As to `CCCOC(=O)N1CCC(c2nnc(CN3CCOCC3)n2C)CC1`, the “% Inhibition” value is recorded as -17% and the Z score is reported as 3.27.
For `C=CCC[C@@H](CN1CCCC1)Oc1ccc(-n2ccnc2C)nn1`, the “% Inhibition” value is -3% and the Z score worked out at 0.57.
As for `Cc1nc(C)c(S(=O)(=O)N2CC[C@H](c3cnccn3)C2)s1`, the “% Inhibition” value is -2% and the Z score amounted to 0.36.
On the same counts, the results for `CCOC1CC(NC(=O)C(C)n2cncn2)C12CCCCC2` (centres undefined) are -8% and 0.85.
On the same counts, the results for `CC(C)c1nccc(N2CCCC3C(NC(=O)C4CCCC4)C(C)(C)C32)n1` (centres undefined) are 15% and -1.91.
On the same counts, the results for `Cc1ccc(CS(=O)(=O)Nc2ccc3nnc(C4CCC4)n3c2)cc1F` are -8% and 1.26.
Turning to `N#Cc1cccc(CN2CCCN(c3ccc(NC(=O)c4ccco4)cc3)C2=O)c1`, the “% Inhibition” value was -11% and the Z score is reported as 2.2.
As for `CC(C)Cn1ccc2c(C(=O)N3CC[C@@](O)(CN(C)C)C3)cccc21`, the “% Inhibition” value is on record as 7% and the Z score is -0.73.
On the same counts, the results for `Cc1nccn1CCN(C)Cc1c(C(=O)N2C[C@@H](C)O[C@@H](C)C2)nc2sccn12` are -7% and 0.86.
In the case of `Cn1ncc(NC(=O)N[C@H]2CCCC23CCCCC3)c1C(F)(F)F`, the “% Inhibition” value is -2% and the Z score stood at 0.21.
Regarding `CNC(=O)c1nnsc1NC(=O)N1CCN(c2ccc(OC)cc2)CC1`, the “% Inhibition” value stood at 5% and the Z score is recorded as -0.78.
On the same counts, the results for `C=CCNC1CS(=O)(=O)CC1S(=O)(=O)c1ccc(CC)cc1` (centres undefined) are -9% and 0.8.
On the same counts, the results for `CCOc1ccc(OC(C)(C)C(=O)Nc2cccc(S(=O)(=O)NC3CC3)c2)cc1` are -5% and 0.39.
For `COc1ccc(OC)c(-c2cnn3cc(-c4ccncc4)cnc23)c1`, the “% Inhibition” value is -8% and the Z score is recorded as 1.52.
On the same counts, the results for `CCCN1CCC[C@H]1CNC(=O)C#Cc1ccc2c(c1)OCO2` are -1% and 0.14.
On the same counts, the results for `CCOC(=O)c1nnn(-c2nc(N3CCCCC3)nc(N3CCOCC3)n2)c1C` are -16% and 2.89.
On the same counts, the results for `COCc1n[nH]c([C@@H]2CCCCN2C(=O)c2cc(F)c(F)cc2Cl)n1` are -8% and 0.82.
For the compound `CC(C)(C)c1nc(NCc2ccncc2)no1`, the “% Inhibition” value is recorded as 12% and the Z score is given as -1.18.
On to `CN(C)S(=O)(=O)NCCn1nc(-c2ccccc2)n(C2CC2)c1=O`, for which the “% Inhibition” value is on record as -7% and the Z score amounted to 1.41.

These data come from ChEMBL document CHEMBL4888484, “Replenishing the malaria drug discovery pipeline: Screening and hit evaluation of the MMV Hit Generation Library 1 (HGL1) against asexual blood stage Plasmodium falciparum ,using a nano luciferase reporter read-out” (2022).
